Drawing on paper PMC12820563, this text covers binding signal (RPM ratio (pull-down/input)) for 32 sequences.

This is one part of the list. The list includes weakly bound sequences.

The target of this assay is T1, MBP-FoxP3dN (UniProt Q99JB6).
T1 sequence: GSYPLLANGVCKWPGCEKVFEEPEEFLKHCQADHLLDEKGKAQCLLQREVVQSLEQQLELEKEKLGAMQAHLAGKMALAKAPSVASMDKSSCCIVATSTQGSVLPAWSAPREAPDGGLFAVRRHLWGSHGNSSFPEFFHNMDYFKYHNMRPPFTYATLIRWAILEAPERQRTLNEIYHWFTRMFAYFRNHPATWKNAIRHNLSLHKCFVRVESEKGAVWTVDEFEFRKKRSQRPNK
The assay is described as follows: PD-seq (MBP pull-down with sequencing). The conditions noted are these: 20 mM Tris-HCl pH 7.5, 100 mM NaCl, 1.5 mM MgCl2, 0.4 uM protein, 0.1 uM dsDNA library, 30 min, room temperature, amylose pull-down; high values mean tight binding; double strand, one strand shown.
As to “GATGATTGTTCTCCCAGCTGATGAATTGTTGAGATCGAGTAAACAAATTTTCCTAATCTTTCTGTTCAAGCGCCATCTAC”, the binding signal (RPM ratio (pull-down/input)) was 0.931.
For the sequence “GATGATTGTTCTCCCAGCTGATGAATTCTTGAAATCGAGTAAACAAATTTTCCTAATCTTTCTGTTCAAGCGCCATCTAC”, the binding signal (RPM ratio (pull-down/input)) stood at 0.29.
“GATGATTGTTCTCCCAGCTGATGAATTTGGATATTCGAGTAAACAAATTTTCCTAATCTTTCTGTTCAAGCGCCATCTAC”: the binding signal (RPM ratio (pull-down/input)) worked out at 1.4.
“GATGATTGTTCTCCCAGCTGATGAATTGGGCGAATCGAGTAAACAAATTTTCCTAATCTTTCTGTTCAAGCGCCATCTAC”: the binding signal (RPM ratio (pull-down/input)) turned out to be 0.367.
Next, “GATGATTGTTCTCCCAGCTGATGAATTCCTGGGGTCGAGTAAACAAATTTTCCTAATCTTTCTGTTCAAGCGCCATCTAC”: 0.186; “GATGATTGTTCTCCCAGCTGATGAATTGGGCCCGTCGAGTAAACAAATTTTCCTAATCTTTCTGTTCAAGCGCCATCTAC”: 1.06; “GATGATTGTTCTCCCAGCTGATGAATTTCGCGGGTCGAGTAAACAAATTTTCCTAATCTTTCTGTTCAAGCGCCATCTAC”: 0.6.
Next, “GATGATTGTTCTCCCAGCTGATGAATTCTCGCTGTCGAGTAAACAAATTTTCCTAATCTTTCTGTTCAAGCGCCATCTAC”: 0.34.
Turning to “GATGATTGTTCTCCCAGCTGATGAATTATCAGCATCGAGTAAACAAATTTTCCTAATCTTTCTGTTCAAGCGCCATCTAC”, the binding signal (RPM ratio (pull-down/input)) was determined as 0.876.
The figure for “GATGATTGTTCTCCCAGCTGATGAATTCGCATGATCGAGTAAACAAATTTTCCTAATCTTTCTGTTCAAGCGCCATCTAC” is 0.877; for “GATGATTGTTCTCCCAGCTGATGAATTAACCTTTTCGAGTAAACAAATTTTCCTAATCTTTCTGTTCAAGCGCCATCTAC” it is 0.238.
Next, “GATGATTGTTCTCCCAGCTGATGAATTCCTCCAATCGAGTAAACAAATTTTCCTAATCTTTCTGTTCAAGCGCCATCTAC”: 0.238; “GATGATTGTTCTCCCAGCTGATGAATTAACGGATTCGAGTAAACAAATTTTCCTAATCTTTCTGTTCAAGCGCCATCTAC”: 0.29; “GATGATTGTTCTCCCAGCTGATGAATTTTCCCTTTCGAGTAAACAAATTTTCCTAATCTTTCTGTTCAAGCGCCATCTAC”: 0.241.
With “GATGATTGTTCTCCCAGCTGATGAATTCAAGATTTCGAGTAAACAAATTTTCCTAATCTTTCTGTTCAAGCGCCATCTAC”, the binding signal (RPM ratio (pull-down/input)) stood at 0.26.
The figure for “GATGATTGTTCTCCCAGCTGATGAATTTCCGCGATCGAGTAAACAAATTTTCCTAATCTTTCTGTTCAAGCGCCATCTAC” is 0.549; for “GATGATTGTTCTCCCAGCTGATGAATTTTCTAACTCGAGTAAACAAATTTTCCTAATCTTTCTGTTCAAGCGCCATCTAC” it is 0.248.
The figure for “GATGATTGTTCTCCCAGCTGATGAATTGAACGAATCGAGTAAACAAATTTTCCTAATCTTTCTGTTCAAGCGCCATCTAC” is 0.222.
In the case of “GATGATTGTTCTCCCAGCTGATGAATTACTCCTATCGAGTAAACAAATTTTCCTAATCTTTCTGTTCAAGCGCCATCTAC”, the binding signal (RPM ratio (pull-down/input)) was 0.309.
The figure for “GATGATTGTTCTCCCAGCTGATGAATTGCCATCTTCGAGTAAACAAATTTTCCTAATCTTTCTGTTCAAGCGCCATCTAC” is 1.07.
As for “GATGATTGTTCTCCCAGCTGATGAATTCTGTGGGTCGAGTAAACAAATTTTCCTAATCTTTCTGTTCAAGCGCCATCTAC”, the binding signal (RPM ratio (pull-down/input)) was 1.06.
Take “GATGATTGTTCTCCCAGCTGATGAATTATAATGCTCGAGTAAACAAATTTTCCTAATCTTTCTGTTCAAGCGCCATCTAC”: the binding signal (RPM ratio (pull-down/input)) amounted to 0.87.
Next, “GATGATTGTTCTCCCAGCTGATGAATTATTCCCTTCGAGTAAACAAATTTTCCTAATCTTTCTGTTCAAGCGCCATCTAC”: 0.264.
Regarding “GATGATTGTTCTCCCAGCTGATGAATTGATGTGCTCGAGTAAACAAATTTTCCTAATCTTTCTGTTCAAGCGCCATCTAC”, the binding signal (RPM ratio (pull-down/input)) amounted to 1.22.
For “GATGATTGTTCTCCCAGCTGATGAATTAGGCGCTTCGAGTAAACAAATTTTCCTAATCTTTCTGTTCAAGCGCCATCTAC”, the binding signal (RPM ratio (pull-down/input)) came out at 0.907.
For the sequence “GATGATTGTTCTCCCAGCTGATGAATTCTATTTATCGAGTAAACAAATTTTCCTAATCTTTCTGTTCAAGCGCCATCTAC”, the binding signal (RPM ratio (pull-down/input)) is 6.6.
Next, “GATGATTGTTCTCCCAGCTGATGAATTGGGCTGGTCGAGTAAACAAATTTTCCTAATCTTTCTGTTCAAGCGCCATCTAC”: 0.424; “GATGATTGTTCTCCCAGCTGATGAATTTCGGTAATCGAGTAAACAAATTTTCCTAATCTTTCTGTTCAAGCGCCATCTAC”: 0.623.
Next, “GATGATTGTTCTCCCAGCTGATGAATTCATGGTTTCGAGTAAACAAATTTTCCTAATCTTTCTGTTCAAGCGCCATCTAC”: 0.909.
The figure for “GATGATTGTTCTCCCAGCTGATGAATTTTTAAATTCGAGTAAACAAATTTTCCTAATCTTTCTGTTCAAGCGCCATCTAC” is 0.277; for “GATGATTGTTCTCCCAGCTGATGAATTATGATTATCGAGTAAACAAATTTTCCTAATCTTTCTGTTCAAGCGCCATCTAC” it is 3.53; for “GATGATTGTTCTCCCAGCTGATGAATTTGTCGAATCGAGTAAACAAATTTTCCTAATCTTTCTGTTCAAGCGCCATCTAC” it is 0.715.
